About 14,000 (4.5%) of roughly 310,000 compounds showed an effect of 50% or more. Effects have a minus sign here. This is one part of the list.
target: human ether-à-go-go-related gene (hERG) potassium channel (human, UniProt Q12809); experiment: primary screen, population patch clamp on CHO cells stably expressing hERG
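Also: peak tail current of the secondary pulse compared with the same well before compound.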

Sequence of human ether-à-go-go-related gene (hERG) potassium channel (Q12809 whole entry, looked up): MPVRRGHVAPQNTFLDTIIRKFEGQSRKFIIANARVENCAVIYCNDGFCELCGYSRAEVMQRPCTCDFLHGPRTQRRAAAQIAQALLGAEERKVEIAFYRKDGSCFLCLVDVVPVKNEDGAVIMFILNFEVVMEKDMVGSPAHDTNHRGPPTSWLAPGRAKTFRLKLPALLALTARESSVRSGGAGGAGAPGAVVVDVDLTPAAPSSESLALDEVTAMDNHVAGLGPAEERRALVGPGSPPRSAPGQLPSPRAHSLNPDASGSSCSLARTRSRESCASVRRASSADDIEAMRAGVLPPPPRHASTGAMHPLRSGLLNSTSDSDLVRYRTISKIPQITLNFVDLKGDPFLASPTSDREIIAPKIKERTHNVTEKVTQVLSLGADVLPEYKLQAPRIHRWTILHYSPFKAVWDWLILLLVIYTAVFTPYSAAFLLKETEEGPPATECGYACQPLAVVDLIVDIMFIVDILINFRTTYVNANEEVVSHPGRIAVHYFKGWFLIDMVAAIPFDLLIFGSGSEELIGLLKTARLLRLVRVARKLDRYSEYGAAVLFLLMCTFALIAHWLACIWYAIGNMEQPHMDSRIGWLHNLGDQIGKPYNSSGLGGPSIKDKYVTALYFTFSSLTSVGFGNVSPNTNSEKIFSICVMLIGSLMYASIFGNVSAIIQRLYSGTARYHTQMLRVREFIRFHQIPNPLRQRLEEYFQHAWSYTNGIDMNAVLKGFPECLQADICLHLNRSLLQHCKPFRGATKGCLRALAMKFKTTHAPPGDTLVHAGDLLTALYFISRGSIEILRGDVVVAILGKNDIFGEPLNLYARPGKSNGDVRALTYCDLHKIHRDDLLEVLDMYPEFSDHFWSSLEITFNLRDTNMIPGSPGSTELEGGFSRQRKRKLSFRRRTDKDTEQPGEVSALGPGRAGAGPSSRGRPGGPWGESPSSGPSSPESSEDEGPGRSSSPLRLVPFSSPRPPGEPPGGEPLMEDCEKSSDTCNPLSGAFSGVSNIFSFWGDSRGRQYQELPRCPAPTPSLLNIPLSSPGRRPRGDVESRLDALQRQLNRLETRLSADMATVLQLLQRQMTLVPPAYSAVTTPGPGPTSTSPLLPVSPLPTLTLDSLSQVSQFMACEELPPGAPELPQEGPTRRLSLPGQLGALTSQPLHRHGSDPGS

Structure (SMILES) | hERG current change (%, negative = inhibition) at 10uM
Cc1nn(-c2ccccc2)c(N2CCCC2)c1/C=C1\N=C(c2ccccc2)OC1=O | 11.7%
COc1ccccc1-n1c(SCC(=O)Nc2cc(C)on2)nc2c([nH]c3ccccc32)c1=O | 0.118%
Nc1c(C(=O)[O-])sc2nc(-c3ccccc3)cc(-c3ccc(Cl)cc3)c12 | 23%
C=Cc1ccc(CN2CCCN(Cc3ccc(Cl)cc3)S2(=O)=O)cc1 | 18.1%
O=C(CCN1C(=O)c2ccccc2C1=O)Nc1cccnc1 | -5.04%
CCCCCC(=O)Nc1cccc(C2=NOC3(C2)C[C@@H](C(N)=O)N(C(=O)Cc2ccc([N+](=O)[O-])cc2)C3)c1 (stereo partly shown) | -38.1%
CCc1ccc(NC(=O)CC2C(=O)NCCN2C(=O)c2ccccc2OC)cc1 (stereo not shown) | 9.63%
O=C(CCS(=O)(=O)c1ccc(Br)cc1)N1CCC2(CC1)OCCO2 | -1.34%
COc1cccc(-n2c(CN3CCN(Cc4ccccc4)CC3)nc3ccc([N+](=O)[O-])cc3c2=O)c1 | -52.8%
CCOC(=O)c1c(=O)n(O)c2ccc(OC)cc2[n+]1[O-] | -4.62%
Cc1ccccc1-n1nc2c(c1NC(=O)CC(C)C)CS(=O)C2 (stereo not shown) | 13.6%
COc1ccc(-n2c(SCC(=O)NCC3CCCO3)nc3c(c2=O)SCC3)cc1OC (stereo not shown) | 1.12%
CCCCOC(=O)CSC1=C(C#N)C(c2ccccc2OCC)C(C#N)C(=O)N1 (stereo not shown) | 4.13%
C/C(=N\N=C(N)N)c1ccc(Cl)cc1 | -42.8%
COc1ccc(COC(=O)C2=C(C)NC(=O)NC2c2cc(OC)ccc2OC)cc1 (stereo not shown) | 10.4%
Cc1ccc(-c2nc(C)sc2CC(=O)OCC(=O)Nc2cccc([N+](=O)[O-])c2)cc1 | -33.5%
COC(=O)c1ccccc1SCc1csc(C)n1 | 15.2%
COc1ccc(NC(=O)C2CC(=O)N(C(C)C)C2)cc1 (stereo not shown) | 11.1%
O=C(CSc1nc2ccccc2c(=O)n1CC1CCCO1)NCc1ccc2c(c1)OCO2 (stereo not shown) | -30.2%
CN(C)c1ccc(C2Nc3ccccc3C(=O)N2CCCN2CCOCC2)cc1 (stereo not shown) | -9.99%
Cc1nc(NC(=O)C2CCCCC2)sc1C | -17.9%
O=C(O)CC1S/C(=N/N=C/c2ccc(-c3ccccc3[N+](=O)[O-])o2)NC1=O (stereo not shown) | -1.58%

Structure (SMILES) | hERG current change (%, negative = inhibition) at 10uM
CCCc1cc(C(=O)OC)c(NC(=O)c2cc(C)on2)s1 | 1.01%
O=C(Cc1ccc([N+](=O)[O-])cc1)N1N=C(C2CC2)CC1(O)C(F)(F)F (stereo not shown) | 1.49%
CCn1c(Cc2ccccc2)nnc1SCC(=O)Nc1ccc(C)cc1 | -10.2%
CCCCOc1ccc(N=Nc2ccc(N)nc2N)cn1 | 10.8%
O=C(O)C(Cc1c[nH]c2ccccc12)NS(=O)(=O)c1ccc2ccccc2c1 (stereo not shown) | -2.25%
COc1cccc(CNCc2ccccc2OC)c1.O=C(O)C(=O)O | -8.39%
O=C(NCc1ccccc1F)C1CCCN(C(=O)NC2CCCCC2)C1 (stereo not shown) | -2.97%
Cn1c(SCC(=O)c2ccccc2)ncc(C(=O)Nc2ccccc2)c1=O | 6.66%
COc1ccc(S(=O)(=O)Cc2ccc(C(=O)NCc3ccccc3OC)o2)cc1 | -41.6%
COCCCNC(=S)N1CCN(S(C)(=O)=O)CC1 | 11.6%
O=C(O)CCSc1nnc(COc2cccc3cccnc23)n1-c1ccccc1 | 12.1%
CC(C)CCNC(=O)C1CCC(=O)N1C(C)C (stereo not shown) | 11.5%
O=C(CCC(=O)N1CCN(C2CCCCC2)CC1)Nc1nnc(C(F)(F)F)s1 | -19.8%
Cc1[nH]n(-c2ccc([N+](=O)[O-])cc2)c(=O)c1/C=N/N1CCOCC1 | 0.128%
CC(=O)N1CC(C)c2scc(C)[n+]2-c2ccccc21.[Cl-] (stereo not shown) | -17.2%
CCCOC(=O)C1C2C=CC(C3CC23)C1C(=O)OCC(=O)c1ccccc1 (stereo not shown) | -22.8%
CC(C)n1c(CN(C)c2ccccc2)nc2ccccc21.Cl | -0.273%
CCOC(=O)/C(C(N)=NCc1ccco1)=C(/O)c1ccccc1 | -5.87%
CCOc1ccccc1NC(=O)CCN1CCN(S(=O)(=O)c2ccc(Br)cc2)CC1 | -6.62%
CC(C)[C@H](NC(=O)[C@@H]1Cc2c([nH]c3ccccc23)C2c3ccccc3C(=O)N21)C(=O)NCC1CCCO1 (stereo partly shown) | 5.33%
Cc1ccc2c(CC(=O)OCc3nc(N)nc(Nc4ccccc4C)n3)coc2c1 | 5.79%
O=C(Nc1ccccc1)c1ccc2c(c1)OCO2 | 3%

Structure (SMILES) | hERG current change (%, negative = inhibition) at 10uM
Brc1cccc(C=Nc2cccc3ncccc23)c1 | 7.37%
CC1(C)CC2CC(C)(CN2C(=O)C23CCC(C)(C(=O)O2)C3(C)C)C1 (stereo not shown) | -8.69%
CCc1ccc(-c2cc(C)no2)cc1S(=O)(=O)NCc1ccco1 | -12.6%
CCOC(=O)c1c[nH]c2c(C(=O)c3ccccc3)cc(Cl)cc2c1=O | -5.13%
O=C(CNC(=O)c1ccc(Cl)cc1Cl)OCn1nnc2ccccc2c1=O | 5.27%
CCOc1ccccc1N1CCN(Cc2ccc(OC)c(OC)c2OC)CC1 | -51.9%
Cc1nc(CSc2nnc3scc(-c4ccccc4)n23)cs1 | 6.9%
CC1(C)CC(=O)C(C=NCCN2CCN(C(=O)C34CC5CC(CC(C5)C3)C4)CC2)=C(O)C1 | 10.1%
Cc1ccc2nc(SCC(=O)NC(=O)NCc3ccco3)[nH]c2c1 | -17.7%
O=C(Nc1ccc([N+](=O)[O-])cc1)Nc1nc(-c2ccc(Cl)s2)cs1 | 25.7%
CCc1cc2c(=O)n(-c3ccccc3)cnc2s1 | 5.13%
Cc1nonc1C(=O)N1CCCC(N2CCN(c3ccc(F)cc3)CC2)C1 (stereo not shown) | -51.8%
Br.CN1CCc2cc3c(c4c2[C@H]1[C@H](O)c1ccccc1-4)OCO3 | -34.8%
COc1cc(NC(=O)c2ccco2)ccc1NC(=O)C(C)C | -1.58%
CC(=O)Nc1cccc(Cl)c1C(=O)O | 8.38%
CCN(Cc1ccccc1)S(=O)(=O)c1ccc(OC)c2ncccc12 | -48.3%
C=CCn1c(SCC2=C(C(=O)OCC)C(C)NC(=O)N2)nnc1C1CCCCC1 (stereo not shown) | 10%
CN(C(=O)CSc1nc2cc([N+](=O)[O-])ccc2n1-c1ccc(F)cc1)C1CCS(=O)(=O)C1 (stereo not shown) | 2.56%
C/C(=N\Nc1cc(C)nc(-c2ccccc2O)n1)c1ccccc1O | 18.7%
CCOC(=O)COc1ccc(S(=O)(=O)NCc2ccncc2)cc1 | -10.6%
O=C(COc1ccc(Br)cc1)N1CCN(C2CCCC2)CC1 | -63.6%
CC(/C=N/NC(=O)c1nnn(-c2nonc2N)c1C)=C\c1ccccc1 | 11%

Structure (SMILES) | hERG current change (%, negative = inhibition) at 10uM
CSc1nnc(C(C)(C)C)c(=O)n1/N=C/c1ccccc1O | -5.95%
O=C(O)c1cnc(-c2ccccc2)nc1Oc1ccccc1 | 29%
O=C1NCC(O)=C1C=NCCCO | 12.6%
COc1cccc(CSc2nc3ccccc3cc2C=O)c1 | 15%
COc1cccc(C2C(C#N)=C(N)N(N(C)C)C3=C2C(=O)CCC3)c1OC (stereo not shown) | 26.5%
COc1ccc(/C=C(/NC(=O)c2ccccc2)C(=O)N2CCCC2)cc1 | 2.89%
COc1ccccc1CCNCc1cccc(C(F)(F)F)c1.O=C(O)C(=O)O | 8.94%
COc1ccc(C)cc1S(=O)(=O)N1c2ccccc2CC1C (stereo not shown) | -21.9%
O=C(COc1ccc2c(-c3ccccc3)cc(=O)oc2c1)NC1CCS(=O)(=O)C1 (stereo not shown) | 5.36%
Cc1ccc(NC(=O)COC(=O)CCc2c[nH]c3ccccc23)c(C)c1 | 9.87%
C/C(=N\NC(=O)c1ccncc1)c1cccc(NC(=O)c2ccc(C(C)(C)C)cc2)c1 | -53.7%
CC(C(=O)Nc1cccc(Br)c1)c1ccc([N+](=O)[O-])cc1 (stereo not shown) | -47.3%
CCC(C)c1ccc(NC(=O)C2CCN(c3ncccn3)CC2)cc1 (stereo not shown) | 13.2%
CCSc1nnc(N)s1 | 12.3%
O=C(CSc1ccc2ccccc2c1)Nc1ccc(S(=O)(=O)Nc2nccs2)cc1 | 8.33%
CC1Cc2ccccc2N1C(=O)CSc1nc2ccccc2s1 (stereo not shown) | 22.4%
Cc1occc1C(=O)N/N=C/c1cnn(C)c1C | -7.6%
CCc1ccc2nc(SCC(=O)Nc3nnc(C)s3)c(C)cc2c1 | 16%
CC(=O)c1ccc(NC(=S)NC(=O)Cc2ccc(Cl)cc2)cc1 | 12.8%
CCN1C(=O)c2cccc3c(S(=O)(=O)NC(Cc4ccccc4)C(=O)O)ccc1c23 (stereo not shown) | 17.7%
O=C(CSc1nnc(SCc2ccccc2)s1)NNC(=S)Nc1ccccc1 | 31%
COc1cccc(NC(=O)COC(=O)CCCC2=NS(=O)(=O)c3ccccc3N2)c1 | 15.1%

From paper PMC4336329 (PLoS ONE, 2015)
